This is a noisy data set.
Test: amyloid nucleation score relative to library mode (yeast Sup35 reporter selection) (log enrichment difference); higher = more amyloid nucleation; sequences are the first 22 residues of the Bri2 peptide extended by up to 12 random residues
Conditions: random library (experiment): 1;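 active = nucleation score significantly above 0 at FDR 0.05; inactive = not significantly above 0 or absent from output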
Protocol: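 Random C-terminal extensions of the 22-aa Bri2 peptide by 12 NNK codons; premature stops give shorter extensions. Peptides were fused to the Sup35 nucleation domain in S. cerevisiae [psi-pin-] and selected on -ADE-URA plates for 7 d at 30 °C. The nucleation score is log(output/input), centred to the mode of each of 3 independent libraries (1 input, 3 technical output replicates), with duplicates merged. Sequences absent from the output ('random_non_nuc') were imputed with the library mode value, so they are given as censored (<). Nucleators are scores significantly >0 at FDR 0.05.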
In the case of EASNCFAIRHFENKFAVETLICCHMASVPKRVCV, the amyloid nucleation score is reported as “inactive”.
Work on EASNCFAIRHFENKFAVETLICCHMPN yielded an amyloid nucleation score of 6.57.
EASNCFAIRHFENKFAVETLICCHQKGMVKMRL showed an amyloid nucleation score of 5.4.
In the case of EASNCFAIRHFENKFAVETLICCHRRKPGGYKYC, the amyloid nucleation score is reported as 4.
With EASNCFAIRHFENKFAVETLICCHTFRNHFCTRM the amyloid nucleation score was 4.21.
For EASNCFAIRHFENKFAVETLICCHTSVESASGCS, the amyloid nucleation score was 5.27.
For EASNCFAIRHFENKFAVETLICCHTYMRWEKQCD, the amyloid nucleation score was 0.703.
With EASNCFAIRHFENKFAVETLICCHVGIVRRLYTC the amyloid nucleation score was 0.804.
For EASNCFAIRHFENKFAVETLICCHWNLIGMVWWS, the amyloid nucleation score was 6.72.
For EASNCFAIRHFENKFAVETLICCICVLCSRTFS, the amyloid nucleation score was 3.38.
EASNCFAIRHFENKFAVETLICCID showed an amyloid nucleation score of 6.
For EASNCFAIRHFENKFAVETLICCIDRCWTGHVLV, the amyloid nucleation score was “inactive”.
Sequence EASNCFAIRHFENKFAVETLICCIDVMHREKGGA has an amyloid nucleation score of 5.72.
With EASNCFAIRHFENKFAVETLICCIEARERFLHAG the amyloid nucleation score was “inactive”.
EASNCFAIRHFENKFAVETLICCIGAEAAQGVKG showed an amyloid nucleation score of 4.24.
For EASNCFAIRHFENKFAVETLICCIGKVCVKWYWG, the amyloid nucleation score was “inactive”.
Sequence EASNCFAIRHFENKFAVETLICCIITKNYNRLSD has an amyloid nucleation score of 7.3.
EASNCFAIRHFENKFAVETLICCILGKVWVREGA gave an amyloid nucleation score of 7.12.
EASNCFAIRHFENKFAVETLICCIMFTVVIGLKV gave an amyloid nucleation score of 2.25.
In the case of EASNCFAIRHFENKFAVETLICCIPVITVQYSAN, the amyloid nucleation score is reported as 7.81.
With EASNCFAIRHFENKFAVETLICCIRLSFSYVSVK the amyloid nucleation score was “inactive”.
For EASNCFAIRHFENKFAVETLICCIRNSYYRDLCV, the amyloid nucleation score was 6.31.
EASNCFAIRHFENKFAVETLICCISPCSLGDVLL gave an amyloid nucleation score of 8.67.
EASNCFAIRHFENKFAVETLICCITYDVNVDLGL showed an amyloid nucleation score of 6.01.
In the case of EASNCFAIRHFENKFAVETLICCIVATVGVSAWR, the amyloid nucleation score is reported as 0.63.
EASNCFAIRHFENKFAVETLICCIVVGDESSFCD gave an amyloid nucleation score of 8.28.
In the case of EASNCFAIRHFENKFAVETLICCIW, the amyloid nucleation score is reported as 8.69.
With EASNCFAIRHFENKFAVETLICCIYCRSSCGSGG the amyloid nucleation score was 4.8.
EASNCFAIRHFENKFAVETLICCIYCSQVPRSTD showed an amyloid nucleation score of 8.77.
EASNCFAIRHFENKFAVETLICCKDRWTETRDRK gave an amyloid nucleation score of 1.11.
For EASNCFAIRHFENKFAVETLICCKLAPAYCPYAV, the amyloid nucleation score was -0.171.
EASNCFAIRHFENKFAVETLICCKLFEYGMGLRV showed an amyloid nucleation score of 0.542.
With EASNCFAIRHFENKFAVETLICCKLNIRTTTDDV the amyloid nucleation score was 2.95.
For EASNCFAIRHFENKFAVETLICCKMLP, the amyloid nucleation score was 6.27.
With EASNCFAIRHFENKFAVETLICCKRVLCSECAIG the amyloid nucleation score was “inactive”.
EASNCFAIRHFENKFAVETLICCKVWKDIVGPGS gave an amyloid nucleation score of 3.53.
With EASNCFAIRHFENKFAVETLICCKWLKHSSYMRV the amyloid nucleation score was “inactive”.
With EASNCFAIRHFENKFAVETLICCL the amyloid nucleation score was 1.35.
EASNCFAIRHFENKFAVETLICCLCVCKDYNCRM showed an amyloid nucleation score of 7.77.
With EASNCFAIRHFENKFAVETLICCLD the amyloid nucleation score was “inactive”.
With EASNCFAIRHFENKFAVETLICCLE the amyloid nucleation score was “inactive”.
With EASNCFAIRHFENKFAVETLICCLEDLQCSQRAC the amyloid nucleation score was “inactive”.
For EASNCFAIRHFENKFAVETLICCLFTLALMAKLG, the amyloid nucleation score was 7.71.
Work on EASNCFAIRHFENKFAVETLICCLGCNISSCHPK yielded an amyloid nucleation score of 8.79.
EASNCFAIRHFENKFAVETLICCLGFIPRLDQSW showed an amyloid nucleation score of 4.38.
Sequence EASNCFAIRHFENKFAVETLICCLGQYVCKCWTG has an amyloid nucleation score of 8.15.
Sequence EASNCFAIRHFENKFAVETLICCLGRCV has an amyloid nucleation score of 7.1.
With EASNCFAIRHFENKFAVETLICCLGVVMVRGEGC the amyloid nucleation score was 5.29.
Work on EASNCFAIRHFENKFAVETLICCLHAFNEGSEWR yielded an amyloid nucleation score of 7.2.
For EASNCFAIRHFENKFAVETLICCLICSYWFLTVP, the amyloid nucleation score was “inactive”.
For EASNCFAIRHFENKFAVETLICCLINHERGQWRF, the amyloid nucleation score was 7.99.
With EASNCFAIRHFENKFAVETLICCLISYFEDRLWG the amyloid nucleation score was “inactive”.
Work on EASNCFAIRHFENKFAVETLICCLLCPYR yielded an amyloid nucleation score of 7.95.

Same assay, conditions: random library (experiment): 2
In the case of EASNCFAIRHFENKFAVETLICCHYLVSVVAFYW, the amyloid nucleation score is reported as “inactive”.
Work on EASNCFAIRHFENKFAVETLICCHYMNGMGATFR yielded an amyloid nucleation score of 6.29.
EASNCFAIRHFENKFAVETLICCI gave an amyloid nucleation score of 4.77.
Work on EASNCFAIRHFENKFAVETLICCICNVVC yielded an amyloid nucleation score of 7.73.
For EASNCFAIRHFENKFAVETLICCIENRHTESEVC, the amyloid nucleation score was “inactive”.
For EASNCFAIRHFENKFAVETLICCIETGRNFFLGW, the amyloid nucleation score was “inactive”.
For EASNCFAIRHFENKFAVETLICCIFASLCCIKNY, the amyloid nucleation score was “inactive”.
Sequence EASNCFAIRHFENKFAVETLICCIFDFNVPCVMD has an amyloid nucleation score of 8.39.
EASNCFAIRHFENKFAVETLICCIFLYSHQCSDA showed an amyloid nucleation score of 4.33.
For EASNCFAIRHFENKFAVETLICCIFN, the amyloid nucleation score was 8.69.
EASNCFAIRHFENKFAVETLICCIFSNVWGEDLC showed an amyloid nucleation score of 8.27.
Sequence EASNCFAIRHFENKFAVETLICCIFSNVWGEDLW has an amyloid nucleation score of 8.79.
Sequence EASNCFAIRHFENKFAVETLICCIHTSYRGKIWS has an amyloid nucleation score of 3.44.
In the case of EASNCFAIRHFENKFAVETLICCIICVKFTVFLH, the amyloid nucleation score is reported as “inactive”.
For EASNCFAIRHFENKFAVETLICCIKLWKSCYCFS, the amyloid nucleation score was “inactive”.
In the case of EASNCFAIRHFENKFAVETLICCILVIYMSLANL, the amyloid nucleation score is reported as “inactive”.
With EASNCFAIRHFENKFAVETLICCIRQCLTYESS the amyloid nucleation score was “inactive”.
Work on EASNCFAIRHFENKFAVETLICCIVSEWMGSHGL yielded an amyloid nucleation score of 5.78.
Work on EASNCFAIRHFENKFAVETLICCIYVNVF yielded an amyloid nucleation score of 6.85.
With EASNCFAIRHFENKFAVETLICCKAIMV the amyloid nucleation score was “inactive”.
Sequence EASNCFAIRHFENKFAVETLICCKDRSRCSYREY has an amyloid nucleation score of 4.21.
For EASNCFAIRHFENKFAVETLICCKFIISVCNVRA, the amyloid nucleation score was “inactive”.
EASNCFAIRHFENKFAVETLICCKFRVQFNKIEG showed an amyloid nucleation score of 3.78.
For EASNCFAIRHFENKFAVETLICCKIYVTFSIWTS, the amyloid nucleation score was “inactive”.
For EASNCFAIRHFENKFAVETLICCKKSSCIRCRGR, the amyloid nucleation score was “inactive”.
For EASNCFAIRHFENKFAVETLICCKLNLRKAWSLG, the amyloid nucleation score was “inactive”.
With EASNCFAIRHFENKFAVETLICCKLTINI the amyloid nucleation score was 6.55.
With EASNCFAIRHFENKFAVETLICCKLWR the amyloid nucleation score was 7.2.
Sequence EASNCFAIRHFENKFAVETLICCLCKFCRYDFLS has an amyloid nucleation score of 1.63.
With EASNCFAIRHFENKFAVETLICCLCNCMEYLIKA the amyloid nucleation score was 8.27.
For EASNCFAIRHFENKFAVETLICCLFGLLWCYPFS, the amyloid nucleation score was “inactive”.
In the case of EASNCFAIRHFENKFAVETLICCLFTFKWSLILN, the amyloid nucleation score is reported as “inactive”.
With EASNCFAIRHFENKFAVETLICCLFVCRSMVRVG the amyloid nucleation score was “inactive”.
In the case of EASNCFAIRHFENKFAVETLICCLGCIPLIGYRG, the amyloid nucleation score is reported as 5.72.
Work on EASNCFAIRHFENKFAVETLICCLGS yielded an amyloid nucleation score of 3.45.
Work on EASNCFAIRHFENKFAVETLICCLGTEGRGGGVL yielded an amyloid nucleation score of 5.86.
For EASNCFAIRHFENKFAVETLICCLHTLATAKTAW, the amyloid nucleation score was “inactive”.
EASNCFAIRHFENKFAVETLICCLKFHDIYISFW showed an amyloid nucleation score of 1.31.
Work on EASNCFAIRHFENKFAVETLICCLKGTFC yielded an amyloid nucleation score of 8.29.
For EASNCFAIRHFENKFAVETLICCLLAMSLMWYN, the amyloid nucleation score was “inactive”.
Sequence EASNCFAIRHFENKFAVETLICCLLG has an amyloid nucleation score of 7.95.

Same assay, conditions: random library (experiment): 3
With EASNCFAIRHFENKFAVETLICCICPV the amyloid nucleation score was 7.45.
EASNCFAIRHFENKFAVETLICCIDDPMSRVKGR showed an amyloid nucleation score of -0.0612.
Sequence EASNCFAIRHFENKFAVETLICCIGRTRMGMWGI has an amyloid nucleation score of 5.27.
With EASNCFAIRHFENKFAVETLICCILNHQLVRATW the amyloid nucleation score was “inactive”.
EASNCFAIRHFENKFAVETLICCILRAKSEPFSR gave an amyloid nucleation score of 3.42.
With EASNCFAIRHFENKFAVETLICCIQCVSSTWLRL the amyloid nucleation score was “inactive”.
For EASNCFAIRHFENKFAVETLICCIRMVVTSRLVV, the amyloid nucleation score was “inactive”.
EASNCFAIRHFENKFAVETLICCIS showed an amyloid nucleation score of 8.2.
With EASNCFAIRHFENKFAVETLICCKAWVD the amyloid nucleation score was “inactive”.
In the case of EASNCFAIRHFENKFAVETLICCKCCSSGMCSEG, the amyloid nucleation score is reported as 7.57.
EASNCFAIRHFENKFAVETLICCKEPWHVESYNG gave an amyloid nucleation score of 5.15.
In the case of EASNCFAIRHFENKFAVETLICCKKGRIMRCLAA, the amyloid nucleation score is reported as “inactive”.
EASNCFAIRHFENKFAVETLICCKLSWCSRIVEG showed an amyloid nucleation score of 7.19.
For EASNCFAIRHFENKFAVETLICCKQTLARRLRGM, the amyloid nucleation score was “inactive”.
Work on EASNCFAIRHFENKFAVETLICCKS yielded an amyloid nucleation score of 0.244.
Sequence EASNCFAIRHFENKFAVETLICCKVPSSLRVMIG has an amyloid nucleation score of 1.06.
In the case of EASNCFAIRHFENKFAVETLICCLDIVLCYRVST, the amyloid nucleation score is reported as 4.24.
For EASNCFAIRHFENKFAVETLICCLDRKLSVCAG, the amyloid nucleation score was 1.19.
Sequence EASNCFAIRHFENKFAVETLICCLEHISATYTKQ has an amyloid nucleation score of 2.57.
With EASNCFAIRHFENKFAVETLICCLG the amyloid nucleation score was “inactive”.
In the case of EASNCFAIRHFENKFAVETLICCLH, the amyloid nucleation score is reported as 4.95.
Sequence EASNCFAIRHFENKFAVETLICCLISRNTFFCLG has an amyloid nucleation score of 5.74.
For EASNCFAIRHFENKFAVETLICCLKGVLGGLGRR, the amyloid nucleation score was 6.13.
Sequence EASNCFAIRHFENKFAVETLICCLLCQITRYTVS has an amyloid nucleation score of 5.7.

From the supplement of paper PMC12067230
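Also: [psi-pin-] Saccharomyces cerevisiae expressing SupN fusions, induced by 100 µM Cu2SO4, selected 7 d at 30 °C without adenine and uracil, scored by deep sequencing of output versus input.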
